Target: unmodified histone H4 peptide (UniProt P59259)
Experiment: MST

- Kd: 34 µM
B1: His-TEV-DDM1(Δ[…]) (domain or fragment)
chain: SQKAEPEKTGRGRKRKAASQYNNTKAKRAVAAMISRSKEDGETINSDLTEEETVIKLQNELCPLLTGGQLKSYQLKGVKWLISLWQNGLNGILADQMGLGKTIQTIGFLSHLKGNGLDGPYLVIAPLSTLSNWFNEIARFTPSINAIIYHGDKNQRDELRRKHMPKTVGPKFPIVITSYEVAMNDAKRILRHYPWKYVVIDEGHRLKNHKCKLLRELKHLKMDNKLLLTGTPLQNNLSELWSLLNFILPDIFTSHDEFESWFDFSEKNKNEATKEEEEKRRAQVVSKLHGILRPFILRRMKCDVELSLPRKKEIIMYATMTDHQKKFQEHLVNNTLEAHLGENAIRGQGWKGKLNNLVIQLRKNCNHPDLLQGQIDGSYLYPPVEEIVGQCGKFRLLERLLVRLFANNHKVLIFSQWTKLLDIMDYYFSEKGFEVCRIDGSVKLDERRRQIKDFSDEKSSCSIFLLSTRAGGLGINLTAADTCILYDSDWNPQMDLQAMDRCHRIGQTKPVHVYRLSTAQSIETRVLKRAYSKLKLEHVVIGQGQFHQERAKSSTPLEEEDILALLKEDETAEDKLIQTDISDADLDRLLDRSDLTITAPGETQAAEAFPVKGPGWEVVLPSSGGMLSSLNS
modifications: labelled with His-label RED-tris-NTA
